# Results as given in the supplement of paper PMC8728848.
# This is one part of the list.
# Experiments:
# Assay in all cases: glycan array binding signal (z-score within array); higher = stronger binding
# Conditions in all cases: glycan notation: IUPAC condensed, linker removed
# Fuc(a1-2)Gal = target: Fuc(a1-2)Gal
# How it was run: (§1)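 The Consortium for Functional Glycomics database supplied 3228 glycan arrays, of which those lacking an available protein sequence were dropped. The binding signal, a within-array Z-score, was averaged across arrays of the same protein sequence and across linkers. Negative scores can be read as non-binding.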
# Fuc(a1-2)Gal(b1-3)GalNAc = target: Fuc(a1-2)Gal(b1-3)GalNAc
# How it was run: as §1
# [1] = target: Fuc(a1-2)Gal(b1-3)GalNAc(a1-3)[Fuc(a1-2)]Gal(b1-4)Glc
# How it was run: as §1
# [2] = target: Fuc(a1-2)Gal(b1-3)GalNAc(a1-3)[Fuc(a1-2)]Gal(b1-4)GlcNAc
# How it was run: as §1
# [3] = target: Fuc(a1-2)Gal(b1-3)GalNAc(b1-3)Gal
# How it was run: as §1
# [4] = target: Fuc(a1-2)Gal(b1-3)GalNAc(b1-3)Gal(a1-4)Gal(b1-4)Glc
# How it was run: as §1
# [5] = target: Fuc(a1-2)Gal(b1-3)GalNAc(b1-4)[Neu5Ac(a2-3)]Gal(b1-4)Glc
# How it was run: as §1
# Fuc(a1-2)Gal(b1-3)GlcNAc = target: Fuc(a1-2)Gal(b1-3)GlcNAc
# How it was run: as §1
# [6] = target: Fuc(a1-2)Gal(b1-3)GlcNAc(b1-2)Man(a1-3)[Fuc(a1-2)Gal(b1-3)GlcNAc(b1-2)Man(a1-6)]Man(b1-4)GlcNAc(b1-4)GlcNAc
# How it was run: as §1
# [7] = target: Fuc(a1-2)Gal(b1-3)GlcNAc(b1-2)Man(a1-3)[Fuc(a1-2)Gal(b1-3)GlcNAc(b1-2)Man(a1-6)]Man(b1-4)GlcNAc(b1-4)[Fuc(a1-6)]GlcNAc
# How it was run: as §1
# [8] = target: Fuc(a1-2)Gal(b1-3)GlcNAc(b1-3)Gal(b1-4)Glc
# How it was run: as §1
# [9] = target: Fuc(a1-2)Gal(b1-3)GlcNAc(b1-3)GalNAc
# How it was run: as §1
# [10] = target: Fuc(a1-2)Gal(b1-3)GlcNAc(b1-3)[Fuc(a1-2)Gal(b1-3)GlcNAc(b1-6)]GalNAc
# How it was run: as §1
# [11] = target: Fuc(a1-2)Gal(b1-3)GlcNAc(b1-3)[Gal(b1-4)GlcNAc(b1-6)]Gal(b1-4)Glc
# How it was run: as §1
# [12] = target: Fuc(a1-2)Gal(b1-3)GlcNAc(b1-3)[Neu5Ac(a2-6)Gal(b1-4)GlcNAc(b1-6)]Gal(b1-4)Glc
# How it was run: as §1
# [13] = target: Fuc(a1-2)Gal(b1-3)GlcNAc6S
# How it was run: as §1
# [14] = target: Fuc(a1-2)Gal(b1-3)[Fuc(a1-4)]GlcNAc
# How it was run: as §1
# [15] = target: Fuc(a1-2)Gal(b1-3)[Fuc(a1-4)]GlcNAc(b1-2)Man(a1-3)[Fuc(a1-2)Gal(b1-3)[Fuc(a1-4)]GlcNAc(b1-2)Man(a1-3)]Man(b1-4)GlcNAc(b1-4)GlcNAc
# How it was run: as §1
# [16] = target: Fuc(a1-2)Gal(b1-3)[Fuc(a1-4)]GlcNAc(b1-2)Man(a1-3)[Fuc(a1-2)Gal(b1-3)[Fuc(a1-4)]GlcNAc(b1-2)Man(a1-6)]Man(b1-4)GlcNAc(b1-4)[Fuc(a1-6)]GlcNAc(b1-4)[Fuc(a1-6)]GlcNAc
# How it was run: as §1
# [17] = target: Fuc(a1-2)Gal(b1-3)[Fuc(a1-4)]GlcNAc(b1-3)[Fuc(a1-3)[Gal(b1-4)]GlcNAc(b1-6)]Gal(b1-4)Glc
# How it was run: as §1
# [18] = target: Fuc(a1-2)Gal(b1-3)[Fuc(a1-4)]GlcNAc(b1-3)[Gal(b1-4)GlcNAc(b1-6)]Gal(b1-4)Glc
# How it was run: as §1
# [19] = target: Fuc(a1-2)Gal(b1-4)Fuc(a1-3)]GlcNAc(b1-2)Man(a1-3)[Fuc(a1-2)Gal(b1-4)[Fuc(a1-3)]GlcNAc(b1-2)Man(a1-6)]Man(b1-4)GlcNAc(b1-4)GlcNAc
# How it was run: as §1
# Fuc(a1-2)Gal(b1-4)Glc = target: Fuc(a1-2)Gal(b1-4)Glc
# How it was run: as §1
# Fuc(a1-2)Gal(b1-4)Glc6S = target: Fuc(a1-2)Gal(b1-4)Glc6S
# How it was run: as §1
# Fuc(a1-2)Gal(b1-4)GlcNAc = target: Fuc(a1-2)Gal(b1-4)GlcNAc
# How it was run: as §1
# [20] = target: Fuc(a1-2)Gal(b1-4)GlcNAc(b1-2)Man
# How it was run: as §1
# [21] = target: Fuc(a1-2)Gal(b1-4)GlcNAc(b1-2)Man(a1-3)[Fuc(a1-2)Gal(b1-4)GlcNAc(b1-2)Man(a1-6)]Man(b1-4)GlcNAc(b1-4)GlcNAc
# How it was run: as §1
# [22] = target: Fuc(a1-2)Gal(b1-4)GlcNAc(b1-2)Man(a1-3)[Fuc(a1-2)Gal(b1-4)GlcNAc(b1-2)Man(a1-6)]Man(b1-4)GlcNAc(b1-4)[Fuc(a1-6)]GlcNAc
# How it was run: as §1
# [23] = target: Fuc(a1-2)Gal(b1-4)GlcNAc(b1-2)[Fuc(a1-2)Gal(b1-4)GlcNAc(b1-4)]Man(a1-3)[Fuc(a1-2)Gal(b1-4)GlcNAc(b1-2)Man(a1-6)]Man(b1-4)GlcNAc(b1-4)GlcNAc
# How it was run: as §1
# [24] = target: Fuc(a1-2)Gal(b1-4)GlcNAc(b1-3)Gal(b1-4)GlcNAc
# How it was run: as §1
binder,measurement,setting,value
WGA (Triticum vulgare) (protein) QRCGEQGSNMECPNNLCCSQYGYCGMGGDYCGKGCQNGACWTSKRCGSQAGGATCPNNHCCSQYGHCGFGAEYCGAGCQGGPCRADIKCGSQSGGKLCPNNLCCSQWGFCGLGSEFCGGGCQSGACSTDKPCGKDAGGRVCTNNYCCSKWGSCGIGPGYCGAGCQSGGCDAVFAGAITANSTLLAE,glycan array binding signal (z-score),Fuc(a1-2)Gal,-0.343
same,glycan array binding signal (z-score),Fuc(a1-2)Gal(b1-3)GalNAc,-0.357
same,glycan array binding signal (z-score),[1],-0.359
same,glycan array binding signal (z-score),[2],-0.05
same,glycan array binding signal (z-score),[3],-0.336
same,glycan array binding signal (z-score),[4],-0.36
same,glycan array binding signal (z-score),[5],-0.367
same,glycan array binding signal (z-score),Fuc(a1-2)Gal(b1-3)GlcNAc,-0.361
same,glycan array binding signal (z-score),[6],-0.02
same,glycan array binding signal (z-score),[7],-0.297
same,glycan array binding signal (z-score),[8],-0.384
same,glycan array binding signal (z-score),[9],-0.341
same,glycan array binding signal (z-score),[10],-0.344
same,glycan array binding signal (z-score),[11],-0.25
same,glycan array binding signal (z-score),[12],-0.342
same,glycan array binding signal (z-score),[13],-0.347
same,glycan array binding signal (z-score),[14],-0.358
same,glycan array binding signal (z-score),[15],-0.244
same,glycan array binding signal (z-score),[16],-0.286
same,glycan array binding signal (z-score),[17],-0.348
same,glycan array binding signal (z-score),[18],-0.249
same,glycan array binding signal (z-score),[19],-0.173
same,glycan array binding signal (z-score),Fuc(a1-2)Gal(b1-4)Glc,-0.352
same,glycan array binding signal (z-score),Fuc(a1-2)Gal(b1-4)Glc6S,-0.356
same,glycan array binding signal (z-score),Fuc(a1-2)Gal(b1-4)GlcNAc,-0.147
same,glycan array binding signal (z-score),[20],-0.357
same,glycan array binding signal (z-score),[21],-0.197
same,glycan array binding signal (z-score),[22],-0.263
same,glycan array binding signal (z-score),[23],-0.198
same,glycan array binding signal (z-score),[24],0.147
